This is one part of the list. Binding of human transcription factors and regulators to the viral nucleoprotein by AlphaScreen, crude cell-free proteins, amounts not normalised, one pass. Fold of the Venus control; higher = more signal. No active / inactive call. Single-pass screen; sequences are the whole Swiss-Prot entries looked up by name.
B1: NFATC3, Q12968 (protein)
chain: MTTANCGAHDELDFKLVFGEDGAPAPPPPGSRPADLEPDDCASIYIFNVDPPPSTLTTPLCLPHHGLPSHSSVLSPSFQLQSHKNYEGTCEIPESKYSPLGGPKPFECPSIQITSISPNCHQELDAHEDDLQINDPEREFLERPSRDHLYLPLEPSYRESSLSPSPASSISSRSWFSDASSCESLSHIYDDVDSELNEAAARFTLGSPLTSPGGSPGGCPGEETWHQQYGLGHSLSPRQSPCHSPRSSVTDENWLSPRPASGPSSRPTSPCGKRRHSSAEVCYAGSLSPHHSPVPSPGHSPRGSVTEDTWLNASVHGGSGLGPAVFPFQYCVETDIPLKTRKTSEDQAAILPGKLELCSDDQGSLSPARETSIDDGLGSQYPLKKDSCGDQFLSVPSPFTWSKPKPGHTPIFRTSSLPPLDWPLPAHFGQCELKIEVQPKTHHRAHYETEGSRGAVKASTGGHPVVKLLGYNEKPINLQMFIGTADDRYLRPHAFYQVHRITGKTVATASQEIIIASTKVLEIPLLPENNMSASIDCAGILKLRNSDIELRKGETDIGRKNTRVRLVFRVHIPQPSGKVLSLQIASIPVECSQRSAQELPHIEKYSINSCSVNGGHEMVVTGSNFLPESKIIFLEKGQDGRPQWEVEGKIIREKCQGAHIVLEVPPYHNPAVTAAVQVHFYLCNGKRKKSQSQRFTYTPVLMKQEHREEIDLSSVPSLPVPHPAQTQRPSSDSGCSHDSVLSGQRSLICSIPQTYASMVTSSHLPQLQCRDESVSKEQHMIPSPIVHQPFQVTPTPPVGSSYQPMQTNVVYNGPTCLPINAASSQEFDSVLFQQDATLSGLVNLGCQPLSSIPFHSSNSGSTGHLLAHTPHSVHTLPHLQSMGYHCSNTGQRSLSSPVADQITGQPSSQLQPITYGPSHSGSATTASPAASHPLASSPLSGPPSPQLQPMPYQSPSSGTASSPSPATRMHSGQHSTQAQSTGQGGLSAPSSLICHSLCDPASFPPDGATVSIKPEPEDREPNFATIGLQDITLDDVNEIIGRDMSQISVSQGAGVSRQAPLPSPESLDLGRSDGL
B2: ZSCAN21, Q9Y5A6 (protein)
chain: MMTKVLGMAPVLGPRPPQEQVGPLMVKVEEKEEKGKYLPSLEMFRQRFRQFGYHDTPGPREALSQLRVLCCEWLRPEIHTKEQILELLVLEQFLTILPQELQAWVQEHCPESAEEAVTLLEDLERELDEPGHQVSTPPNEQKPVWEKISSSGTAKESPSSMQPQPLETSHKYESWGPLYIQESGEEQEFAQDPRKVRDCRLSTQHEESADEQKGSEAEGLKGDIISVIIANKPEASLERQCVNLENEKGTKPPLQEAGSKKGRESVPTKPTPGERRYICAECGKAFSNSSNLTKHRRTHTGEKPYVCTKCGKAFSHSSNLTLHYRTHLVDRPYDCKCGKAFGQSSDLLKHQRMHTEEAPYQCKDCGKAFSGKGSLIRHYRIHTGEKPYQCNECGKSFSQHAGLSSHQRLHTGEKPYKCKECGKAFNHSSNFNKHHRIHTGEKPYWCHHCGKTFCSKSNLSKHQRVHTGEGEAP
B3: GRHL1, Q9NZI5 (protein)
chain: MTQEYDNKRPVLVLQNEALYPQRRSYTSEDEAWKSFLENPLTAATKAMMSINGDEDSAAALGLLYDYYKVPRERRSSTAKPEVEHPEPDHSKRNSIPIVTEQPLISAGENRVQVLKNVPFNIVLPHGNQLGIDKRGHLTAPDTTVTVSIATMPTHSIKTETQPHGFAVGIPPAVYHPEPTERVVVFDRNLNTDQFSSGAQAPNAQRRTPDSTFSETFKEGVQEVFFPSDLSLRMPGMNSEDYVFDSVSGNNFEYTLEASKSLRQKPGDSTMTYLNKGQFYPITLKEVSSSEGIHHPISKVRSVIMVVFAEDKSREDQLRHWKYWHSRQHTAKQRCIDIADYKESFNTISNIEEIAYNAISFTWDINDEAKVFISVNCLSTDFSSQKGVKGLPLNIQVDTYSYNNRSNKPVHRAYCQIKVFCDKGAERKIRDEERKQSKRKVSDVKVPLLPSHKRMDITVFKPFIDLDTQPVLFIPDVHFANLQRGTHVLPIASEELEGEGSVLKRGPYGTEDDFAVPPSTKLARIEEPKRVLLYVRKESEEVFDALMLKTPSLKGLMEAISDKYDVPHDKIGKIFKKCKKGILVNMDDNIVKHYSNEDTFQLQIEEAGGSYKLTLTEI
B4: MYBL1, P10243 (protein)
chain: MAKRSRSEDEDDDLQYADHDYEVPQQKGLKKLWNRVKWTRDEDDKLKKLVEQHGTDDWTLIASHLQNRSDFQCQHRWQKVLNPELIKGPWTKEEDQRVIELVQKYGPKRWSLIAKHLKGRIGKQCRERWHNHLNPEVKKSSWTEEEDRIIYEAHKRLGNRWAEIAKLLPGRTDNSIKNHWNSTMRRKVEQEGYLQDGIKSERSSSKLQHKPCAAMDHMQTQNQFYIPVQIPGYQYVSPEGNCIEHVQPTSAFIQQPFIDEDPDKEKKIKELEMLLMSAENEVRRKRIPSQPGSFSSWSGSFLMDDNMSNTLNSLDEHTSEFYSMDENQPVSAQQNSPTKFLAVEANAVLSSLQTIPEFAETLELIESDPVAWSDVTSFDISDAAASPIKSTPVKLMRIQHNEGAMECQFNVSLVLEGKKNTCNGGNSEAVPLTSPNIAKFSTPPAILRKKRKMRVGHSPGSELRDGSLNDGGNMALKHTPLKTLPFSPSQFFNTCPGNEQLNIENPSFTSTPICGQKALITTPLHKETTPKDQKENVGFRTPTIRRSILGTTPRTPTPFKNALAAQEKKYGPLKIVSQPLAFLEEDIREVLKEETGTDLFLKEEDEPAYKSCKQENTASGKKVRKSLVLDNWEKEESGTQLLTEDISDMQSENRFTTSLLMIPLLEIHDNRCNLIPEKQDINSTNKTYTLTKKKPNPNTSKVVKLEKNLQSNCEWETVVYGKTEDQLIMTEQARRYLSTYTATSSTSRALIL
B5: PBX4, Q9BYU1 (protein)
chain: MAAPPRPAPSPPAPRRLDTSDVLQQIMAITDQSLDEAQARKHALNCHRMKPALFSVLCEIKEKTVVSIRGIQDEDPPDAQLLRLDNMLLAEGVCRPEKRGRGGAVARAGTATPGGCPNDNSIEHSDYRAKLSQIRQIYHSELEKYEQACREFTTHVTNLLQEQSRMRPVSPKEIERMVGAIHGKFSAIQMQLKQSTCEAVMTLRSRLLDARRKRRNFSKQATEVLNEYFYSHLNNPYPSEEAKEELARKGGLTISQVSNWFGNKRIRYKKNMGKFQEEATIYTGKTAVDTTEVGVPGNHASCLSTPSSGSSGPFPLPSAGDAFLTLRTLASLQPPPGGGCLQSQAQGSWQGATPQPATASPAGDPGSINSSTSN
B6: FOXN3, O00409 (protein)
chain: MGPVMPPSKKPESSGISVSSGLSQCYGGSGFSKALQEDDDLDFSLPDIRLEEGAMEDEELTNLNWLHESKNLLKSFGESVLRSVSPVQDLDDDTPPSPAHSDMPYDARQNPNCKPPYSFSCLIFMAIEDSPTKRLPVKDIYNWILEHFPYFANAPTGWKNSVRHNLSLNKCFKKVDKERSQSIGKGSLWCIDPEYRQNLIQALKKTPYHPHPHVFNTPPTCPQAYQSTSGPPIWPGSTFFKRNGALLQDPDIDAASAMMLLNTPPEIQAGFPPGVIQNGARVLSRGLFPGVRPLPITPIGVTAAMRNGITSCRMRTESEPSCGSPVVSGDPKEDHNYSSAKSSNARSTSPTSDSISSSSSSADDHYEFATKGSQEGSEGSEGSFRSHESPSDTEEDDRKHSQKEPKDSLGDSGYASQHKKRQHFAKARKVPSDTLPLKKRRTEKPPESDDEEMKEAAGSLLHLAGIRSCLNNITNRTAKGQKEQKETTKN
B7: SOX7, Q9BT81 (protein)
chain: MASLLGAYPWPEGLECPALDAELSDGQSPPAVPRPPGDKGSESRIRRPMNAFMVWAKDERKRLAVQNPDLHNAELSKMLGKSWKALTLSQKRPYVDEAERLRLQHMQDYPNYKYRPRRKKQAKRLCKRVDPGFLLSSLSRDQNALPEKRSGSRGALGEKEDRGEYSPGTALPSLRGCYHEGPAGGGGGGTPSSVDTYPYGLPTPPEMSPLDVLEPEQTFFSSPCQEEHGHPRRIPHLPGHPYSPEYAPSPLHCSHPLGSLALGQSPGVSMMSPVPGCPPSPAYYSPATYHPLHSNLQAHLGQLSPPPEHPGFDALDQLSQVELLGDMDRNEFDQYLNTPGHPDSATGAMALSGHVPVSQVTPTGPTETSLISVLADATATYYNSYSVS
B8: CDX2, Q99626 (protein)
chain: MYVSYLLDKDVSMYPSSVRHSGGLNLAPQNFVSPPQYPDYGGYHVAAAAAAAANLDSAQSPGPSWPAAYGAPLREDWNGYAPGGAAAAANAVAHGLNGGSPAAAMGYSSPADYHPHHHPHHHPHHPAAAPSCASGLLQTLNPGPPGPAATAAAEQLSPGGQRRNLCEWMRKPAQQSLGSQVKTRTKDKYRVVYTDHQRLELEKEFHYSRYITIRRKAELAATLGLSERQVKIWFQNRRAKERKINKKKLQQQQQQQPPQPPPPPPQPPQPQPGPLRSVPEPLSPVSSLQASVPGSVPGVLGPTGGVLNPTVTQ
B9: ERG, P11308 (protein)
chain: MASTIKEALSVVSEDQSLFECAYGTPHLAKTEMTASSSSDYGQTSKMSPRVPQQDWLSQPPARVTIKMECNPSQVNGSRNSPDECSVAKGGKMVGSPDTVGMNYGSYMEEKHMPPPNMTTNERRVIVPADPTLWSTDHVRQWLEWAVKEYGLPDVNILLFQNIDGKELCKMTKDDFQRLTPSYNADILLSHLHYLRETPLPHLTSDDVDKALQNSPRLMHARNTGGAAFIFPNTSVYPEATQRITTRPDLPYEPPRRSAWTGHGHPTPQSKAAQPSPSTVPKTEDQRPQLDPYQILGPTSSRLANPGSGQIQLWQFLLELLSDSSNSSCITWEGTNGEFKMTDPDEVARRWGERKSKPNMNYDKLSRALRYYYDKNIMTKVHGKRYAYKFDFHGIAQALQPHPPESSLYKYPSDLPYMGSYHAHPQKMNFVAPHPPALPVTSSSFFAAPNPYWNSPTGGIYPNTRLPTSHMPSHLGTYY

Target: nucleoprotein N of Crimean-Congo hemorrhagic fever virus
Experiment: AlphaScreen luminescence signal relative to Venus negative control (fold); higher = stronger binding to CCHFV N
Protocol: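 AlphaScreen binding of cell-free made, FLAG-GST-tagged human transcription factors and regulators (crude translation products) to biotinylated N protein; signal as fold of the FLAG-GST-Venus control. One pass.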

Binder | AlphaScreen luminescence signal
B1 | 1.26
B2 | 2.37
B3 | 2.74
B4 | 2.79
B5 | 1.95
B6 | 1.86
B7 | 4.28
B8 | 2.65
B9 | 2.88
